Experiment [1] concerns HCV NS3 protease V36M, R155K. In kind it is biochemical. The note with it: enzyme IC50 of V36M, R155K compared to the genotype 1a HCV-H reference strain; 15 min.
Experiment [2] has as its system HCV NS3 protease V36M, R155T. In kind it is biochemical. The note with it: enzyme IC50 of V36M, R155T compared to the genotype 1a HCV-H reference strain; 15 min.

Our source for the Fold change values is patent EP1951748B1, “HEPATITIS C VIRUS VARIANTS” (Vertex Pharmaceuticals, Inc., priority 2005, dated 2007).

Take `COc1ccc2c(O[C@@H]3C[C@H]4C(=O)N[C@]5(C(=O)O)C[C@H]5/C=C\CCCCC[C@H](NC(=O)OC5CCCC5)C(=O)N4C3)cc(-c3csc(NC(C)C)n3)nc2c1` [BILN 2061]: the Fold change in experiment [1] is recorded as over 183; in experiment [2], 158.
